Laboratory results from patent US20260193238A1, “PHARMACEUTICAL COMPOUNDS AS PARP7 AND/OR PARP1 INHIBITORS” (Duke Street Bio Limited, priority 2022, published 2026).

Each compound was assayed against T1, PARP7 (amino acids 456-657) (Homo sapiens, UniProt Q7Z3E1) (assay: PARP7 biochemical DELFIA assay (auto-MARylation)). Conditions: Table 1A.
T1 sequence (Q7Z3E1 456-657): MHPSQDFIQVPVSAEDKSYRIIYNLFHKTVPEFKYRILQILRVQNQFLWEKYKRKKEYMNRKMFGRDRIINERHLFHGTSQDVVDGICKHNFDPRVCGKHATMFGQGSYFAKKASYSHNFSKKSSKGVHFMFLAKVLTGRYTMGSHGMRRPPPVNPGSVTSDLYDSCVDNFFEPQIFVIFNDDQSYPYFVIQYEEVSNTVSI

| IC50 | Structure (SMILES) |
| --- | --- |
| > 10000 nM | N#Cc1ccc2nc(N3CCN(C(=O)CN4CCCC4c4cc(C#N)c(=O)[nH]n4)CC3)oc2c1 (single isomer, unassigned) [Compound 145b] |
| ≤ 10 nM | N#Cc1cc(F)cnc1N1CCN(C(=O)CN2CCCC2c2cc(C(F)(F)F)c(=O)[nH]n2)CC1 (single isomer, unassigned) [Compound 146a] |
| ≤ 10 nM | N#Cc1cc(C2CCCN2CC(=O)N2CCN(c3nc4cc(F)ccc4o3)CC2)n[nH]c1=O (single isomer, unassigned) [Compound 149a] |
| 100 to 1000 nM | N#Cc1cc(C2CCCN2CC(=O)N2CCN(c3nc4cc(F)ccc4o3)CC2)n[nH]c1=O (single isomer, unassigned) [Compound 149b] |
| 10 to 100 nM | O=C(CN1CCCC1c1cc(C(F)(F)F)c(=O)[nH]n1)N1CCN(c2nc3cc(F)ccc3o2)CC1 (single isomer, unassigned) [Compound 150b] |
| 10 to 100 nM | CC1(C)C[C@H](c2cc(C(F)(F)F)c(=O)[nH]n2)N(CC(=O)N2CCN(c3ncc(C(F)(F)F)cn3)CC2)C1 [Compound 94a] |

The next lines start with the compound.

| Structure (SMILES) | IC50 |
| --- | --- |
| CNC(=O)c1ccc(N2CCN(C(=O)CCN3CCC(c4n[nH]c(=O)c5ccccc45)CC3)CC2)cn1 [Compound 48, N-methyl-5-(4-(3-(4-(4-oxo-3,4-dihydrophthalazin-1-yl)piperidin-1-yl)propanoyl)piperazin-1-yl)picolinamide] | > 10000 nM |
| O=C(CCN1CCC(c2n[nH]c(=O)c3ccccc23)CC1)N1CCN(c2ncc(C(F)(F)F)cn2)CC1 [Compound 49] | > 10000 nM |
| CNC(=O)c1ccc(N2CCN(C(=O)CN3CCC(c4n[nH]c(=O)c5ccccc45)CC3)CC2)cn1 [Compound 50] | > 10000 nM |
| O=C(CN1CCC(c2n[nH]c(=O)c3ccccc23)CC1)N1CCN(c2ncc(C(F)(F)F)cn2)CC1 [Compound 51] | 1000 to 10000 nM |
| CNC(=O)c1ccc(N2CCN(C(=O)CCN3CCC(c4cc(C(F)(F)F)c(=O)[nH]n4)CC3)CC2)cn1 [Compound 59] | > 10000 nM |
| O=C(CCN1CCC(c2cc(C(F)(F)F)c(=O)[nH]n2)CC1)N1CCN(c2ncc(C(F)(F)F)cn2)CC1 [Compound 61] | > 10000 nM |
| O=C(CN1CCC(c2cc(C(F)(F)F)c(=O)[nH]n2)CC1)N1CCN(c2ncc(C(F)(F)F)cn2)CC1 [Compound 62] | 100 to 1000 nM |
| CNC(=O)c1ccc(N2CCN(C(=O)CN3CCC(c4cc(C(F)(F)F)c(=O)[nH]n4)CC3)CC2)cn1 [Compound 64] | 1000 to 10000 nM |
| O=C(CN1CC2(c3cc(C(F)(F)F)c(=O)[nH]n3)CC1C2)N1CCN(c2ncc(C(F)(F)F)cn2)CC1 [Compound 86] | 1000 to 10000 nM |
| O=C(CN1CC(F)(F)C[C@@H]1c1cc(C(F)(F)F)c(=O)[nH]n1)N1CCN(c2ncc(C(F)(F)F)cn2)CC1 [Compound 91a, (R)-6-(4,4-difluoro-1-(2-oxo-2-(4-(5-(trifluoromethyl)pyrimidin-2-yl)piperazin-1-yl)ethyl)pyrrolidin-2-yl)-4-(trifluoromethyl)pyridazin-3(2H)-one] | ≤ 10 nM |
| O=C(CN1CC(F)(F)C[C@H]1c1cc(C(F)(F)F)c(=O)[nH]n1)N1CCN(c2ncc(C(F)(F)F)cn2)CC1 [Compound 91b, (S)-6-(4,4-difluoro-1-(2-oxo-2-(4-(5-(trifluoromethyl)pyrimidin-2-yl)piperazin-1-yl)ethyl)pyrrolidin-2-yl)-4-(trifluoromethyl)pyridazin-3(2H)-one] | 100 to 1000 nM |
| O=C(CCN1CC2(c3cc(C(F)(F)F)c(=O)[nH]n3)CC1C2)N1CCN(c2ncc(C(F)(F)F)cn2)CC1 [Compound 103] | 1000 to 10000 nM |
